Laboratory results taken from paper PMC7819943, “Rice protein-binding microarrays: a tool to detect cis-acting elements near promoter regions in rice”.
Some of the results follow.

The sequences below were run against T1, OsWOX13 (Oryza sativa, UniProt Q5QMM3 1-267) (assay: protein-binding microarray (RPBM); PBS, 2% BSA, 51.3 ng/ul salmon testes DNA, 50 uM zinc acetate, 200 nM TF, 25 C, 1 h; high values mean tight binding). Conditions: protein: recombinant; tags: N-terminal polyhistidine and DsRed monomer fusion (pET32a); label: CyDye5-dUTP incorporated in the synthesized complementary strand; 3' TTTTT single-stranded linker to array surface; dsDNA, one strand shown.
T1 sequence: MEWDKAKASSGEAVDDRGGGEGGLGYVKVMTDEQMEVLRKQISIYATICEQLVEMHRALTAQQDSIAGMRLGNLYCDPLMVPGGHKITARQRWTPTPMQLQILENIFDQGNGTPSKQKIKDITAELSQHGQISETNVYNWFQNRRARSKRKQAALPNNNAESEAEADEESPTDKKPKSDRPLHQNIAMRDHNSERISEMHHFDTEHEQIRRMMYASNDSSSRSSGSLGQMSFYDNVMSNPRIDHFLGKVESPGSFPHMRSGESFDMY
In short: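 Binding signal is defined as the fluorescence intensity of each feature in arbitrary units, read on an Axon 4000B scanner. Transcription factors with N-terminal polyhistidine and DsRed fusions came from E. coli BL21-CodonPlus and were purified on Ni–NTA. They were incubated at 200 nM for 1 h at 25 °C on a custom Agilent array that had been made double-stranded with Cy5-dUTP, with 50 µM zinc acetate present, and the array was washed.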
“GAGAGATGGTGATGATAGACATGTGGGTCCCACGCTGACTCGGAGTCACCTAGTGCAG” was tested, and the binding signal was 5020 fluorescence intensity (a.u.). In the case of “GCCATTGATGACAAAGACAACCTGGAAGATTACTGTTGCACGGAGTCACCTAGTGCAG”, the binding signal is reported as 6620 fluorescence intensity (a.u.). In the case of “AACCTCAACCAATCACTAGTAACCTCAACATTTCGCACTACGGAGTCACCTAGTGCAG”, the binding signal is reported as 4790 fluorescence intensity (a.u.). For “TCAGTTACTAATTAGTACTATCAACAGAATCCACTGTACACGGAGTCACCTAGTGCAG”, the binding signal was 22700 fluorescence intensity (a.u.). For “CATTAGAGTGATTACTTTTGTTGGGGTACACAAATCATTGCGGAGTCACCTAGTGCAG”, the binding signal was 12600 fluorescence intensity (a.u.). With “GTCAATCATTGTTCTATGAGCTAGATGATAAAGATGACAACGGAGTCACCTAGTGCAG” the binding signal was 8180 fluorescence intensity (a.u.). “AACAATTAATGATTTTATTTCTGAATTTGCACGGAAGATACGGAGTCACCTAGTGCAG” was tested, and the binding signal was 12600 fluorescence intensity (a.u.). In the case of “CCGATTGAATGGGGATTTGTGTGGAAATGGCATAGGGAAGCGGAGTCACCTAGTGCAG”, the binding signal is reported as 29000 fluorescence intensity (a.u.). For “CAACAATTAATTATAGTTTCGATTGAATTTCACACACATCCGGAGTCACCTAGTGCAG”, the binding signal was 5930 fluorescence intensity (a.u.). “CTGAAATTTATGTTGCTGATGATCCTTTCAATGGGAGCTTCGGAGTCACCTAGTGCAG” was tested, and the binding signal was 13000 fluorescence intensity (a.u.). For “TTACCCACTAATTAGGTCCGTCACTAAATATGAAAAGCACCGGAGTCACCTAGTGCAG”, the binding signal was 17300 fluorescence intensity (a.u.). In the case of “ATGGCAAATTATTGCGATAAAATTGTTTTCTGCCGATCGACGGAGTCACCTAGTGCAG”, the binding signal is reported as 8880 fluorescence intensity (a.u.). For “AGACATGATAGGTTTATCCAATCCATCACCTCATCCCTCACGGAGTCACCTAGTGCAG”, the binding signal was 5250 fluorescence intensity (a.u.). For “GGATTTAGTAGGGATGATTGATGGATGACCCAAGGAAAGACGGAGTCACCTAGTGCAG”, the binding signal was 18500 fluorescence intensity (a.u.). “TTGTTTATTTAAGGTGTGATTGTATTTGGATCATGTTTTGCGGAGTCACCTAGTGCAG” was tested, and the binding signal was 5500 fluorescence intensity (a.u.). “CGATAATTTGAATTTGAATTTCAAATTATGACAACTTTAACGGAGTCACCTAGTGCAG” was tested, and the binding signal was 38600 fluorescence intensity (a.u.). “AATAATTTGCCAATACCAACATTTTACTATAAATACTTATCGGAGTCACCTAGTGCAG” was tested, and the binding signal was 5410 fluorescence intensity (a.u.). “CTAATTAATTAATTACATAAGCTAAGCGCCGGGAGTTTGCCGGAGTCACCTAGTGCAG” was tested, and the binding signal was 48200 fluorescence intensity (a.u.). “ATCAATCACATTTGATCACCAACACTCAACTACTACAAATCGGAGTCACCTAGTGCAG” was tested, and the binding signal was 9200 fluorescence intensity (a.u.). In the case of “GATTAATTAGTCCGCATATTTGCATGCCCATTTTGGTAGTCGGAGTCACCTAGTGCAG”, the binding signal is reported as 43800 fluorescence intensity (a.u.). For “CGCTAAATTACCTACTTTCACAATTTTGAAGTATGTTATACGGAGTCACCTAGTGCAG”, the binding signal was 9250 fluorescence intensity (a.u.). “TCAAAATTAACTTGTATAAGACTTAAATTTTGATATCCATCGGAGTCACCTAGTGCAG” was tested, and the binding signal was 11100 fluorescence intensity (a.u.). “GTGGATTGCATGATGAATCCTTTTGCACAATTGTTTGGCCCGGAGTCACCTAGTGCAG” was tested, and the binding signal was 3800 fluorescence intensity (a.u.). In the case of “CAACCTTAATTTCAATTTAAAACTACACCATACTTTCACCCGGAGTCACCTAGTGCAG”, the binding signal is reported as 21900 fluorescence intensity (a.u.). In the case of “ACTCTATTATTGAACGTGTATTACTGACACTGAAAGTTTCCGGAGTCACCTAGTGCAG”, the binding signal is reported as 4850 fluorescence intensity (a.u.). For “TTCCCTGATTTTCCCTCATCATCCCATCTCGTTTGTTCTTCGGAGTCACCTAGTGCAG”, the binding signal was 10200 fluorescence intensity (a.u.). With “GTGCATCACCAATCAAAACAGGAGGTGTTTGGAACTCCGTCGGAGTCACCTAGTGCAG” the binding signal was 3870 fluorescence intensity (a.u.). For “CTCTTTTGATGAAAATTGAGGAAATCTGACTTAAAAGGCACGGAGTCACCTAGTGCAG”, the binding signal was 4400 fluorescence intensity (a.u.). “ATTTGAAATTTAAATTTTAGCTTTTGCTTTAGTTTATTTGCGGAGTCACCTAGTGCAG” was tested, and the binding signal was 8720 fluorescence intensity (a.u.). With “TTAATTTAATTCAGGTGTGGAGTCCCCACCGGTGTTCCCTCGGAGTCACCTAGTGCAG” the binding signal was 7880 fluorescence intensity (a.u.). In the case of “GAAAGGATCTGTACTAGTGATTGGAAAATCCGTCATAGGGCGGAGTCACCTAGTGCAG”, the binding signal is reported as 6480 fluorescence intensity (a.u.). For “TCTAAACATATCCAGATAAATTATTCTGAGATGAGTCTCACGGAGTCACCTAGTGCAG”, the binding signal was 3670 fluorescence intensity (a.u.). For “GGTTGATAACCATGATAATTGAGCTGTTGCCGTCGCATTTCGGAGTCACCTAGTGCAG”, the binding signal was 14600 fluorescence intensity (a.u.). “AGTGATGTATATTGATCTTTGAATAAGCTGGTAGACGAATCGGAGTCACCTAGTGCAG” was tested, and the binding signal was 4060 fluorescence intensity (a.u.). In the case of “CCCTATCAGATTTGACAGAAAATTTACTTATAATTTCAGTCGGAGTCACCTAGTGCAG”, the binding signal is reported as 14700 fluorescence intensity (a.u.). “TATTCTCACCATCTAATTGATTGGAGGTAACCATATTCAACGGAGTCACCTAGTGCAG” was tested, and the binding signal was 23100 fluorescence intensity (a.u.). With “CTAGATTTATGGGTGATGTGTGATTAGGACTGCAGGATTACGGAGTCACCTAGTGCAG” the binding signal was 34000 fluorescence intensity (a.u.). For “CCTTCATTAACATGATTATGGTTCATGCCAAATGCTTAGTCGGAGTCACCTAGTGCAG”, the binding signal was 26900 fluorescence intensity (a.u.). For “GTTAATTAAACTCAATATAAAGATGAGGAACGGCAAGTGACGGAGTCACCTAGTGCAG”, the binding signal was 24800 fluorescence intensity (a.u.). “ACGCTTCTTAAATTTATAAATGGTGTCCTTCATACATAACCGGAGTCACCTAGTGCAG” was tested, and the binding signal was 4270 fluorescence intensity (a.u.). With “GATCGAATTGGTAAATCAAATGTCTCTAAATTCTCTCCATCGGAGTCACCTAGTGCAG” the binding signal was 4550 fluorescence intensity (a.u.). With “ATTTTAATTACATTGTTGTTACACTATAATTACACCATAGCGGAGTCACCTAGTGCAG” the binding signal was 27100 fluorescence intensity (a.u.).
